Molecular target: T1, TNFα (of the treated mice) (mouse, UniProt P06804 80-235, limits assumed)
T1 sequence (looked up): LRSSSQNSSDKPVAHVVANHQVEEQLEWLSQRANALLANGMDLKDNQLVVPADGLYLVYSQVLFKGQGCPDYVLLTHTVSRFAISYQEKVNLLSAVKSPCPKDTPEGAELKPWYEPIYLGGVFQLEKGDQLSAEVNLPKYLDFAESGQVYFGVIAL
Assay: cell-based or functional assay

B1: long-acting recombinant human soluble tumor necrosis factor α receptor (LHusTNFR) type II in the form of HusTNFR type II-IgG1:Fc (Fc fusion)
chain: LPAQVAFTPYAPEPGSTCRLREYYDQTAQMCCSKCSPGQHAKVFCTKTSDTVCDSCEDSTYTQLWNWVPECLSCGSRCSSDQVETQACTREQNRICTCRPGWYCALSKQEGCRLCAPLRKCRPGFGVARPGTETSDVVCKPCAPGTFSNTTSSTDICRPHQICNVVAIPGNASMDAVCTSTSPTRSMAPGAVHLPQPVSTRSQHTQPTPEPSTAPSTSFLLPMGPSPPAEGSTGD[sequence of human IgG1 Fc with K326L (EU numbers) omitted]
Question: B1 was tested. Which “IL-6 mRNA level in liver (real-time PCR), decrease as compared with the control group” value did it give?
Answer: 78.3%

Question: What about the “MIP-2 mRNA level in liver (real-time PCR), decrease as compared with the control group” value of the same binder?
Answer: 72.1%

Question: And the “bcl-xL mRNA level in liver (real-time PCR), decrease as compared with the control group” value?
Answer: 77.3%
